Experimental data as given in patent US3959283A, “Amino-derivatives of 1,4-benzodioxan” (Laboratoire L. Lafon, priority 1974, dated 1976).
Structures can show the parent of a compound that is named as a salt.

Experiments:
Format in all cases: in vivo
[1] = system: femoral and vertebral arteries; experiment: Local administration into femoral or vertebral artery of dogs (product of Example 5); details: injected locally into femoral or vertebral artery
dogs [2] = experiment: General administration (intravenous, intraduodenal) to dogs (product of Example 5)
Description: Intravenous administration:
The following results are observed:

dogs [3] = experiment: Vasodilating properties of the product of Example 6 in anaesthetised dogs; details: one test intraduodenal 10 mg/kg
Method: When administered intra-arterially, the product of Example 6 is injected directly into the femoral artery. The flow rate is increased by 200% from a dose of 10 μg.

Row | Compound | femoral and vertebral flow rates [1] | preference between flow rates [1] | vertebral dilating action (dogs [2]; i.v.) | pulse rate effect (dogs [2]; i.v., 15 mg/kg) | femoral vasodilating action, maximum increase (dogs [2]; i.v., from 3.5 mg/kg) | effect on the AP (dogs [2]; i.v., up to 15 mg/kg) | vasodilating effect (dogs [2]; intraduodenal, 3.5, 7, 15 and 35 mg/kg) | pulse rate (dogs [2]; intraduodenal, from 7 mg/kg) | vasodilating effect (summary) (dogs [2]; summary) | femoral flow rate (dogs [3]; i.v. 2.5, 5 and 10 mg/kg) | intraventricular pressure (dogs [3]; i.v. 2.5, 5 and 10 mg/kg) | ratio dp/dt (dogs [3]; i.v. 2.5, 5 and 10 mg/kg) | time to disappearance of the femoral flow effect (dogs [3]; i.v. 2.5, 5 and 10 mg/kg) | hypotensive effect (dogs [3]; i.v. over 5 minutes, 2.5, 5 and 10 mg/kg)
1 | CC(C)(C)c1ccc2c(c1)OCC(CN1CCN(CCO)CC1)O2 (centres unmarked) [Example 5, 1-[2-(6- or 7-{tertiarybutyl}-1,4-benzodioxanyl)-methyl]-4-(2-hydroxyethyl)-piperazine dihydrochloride] | increases both these flow rates in proportion to the doses | a preference for the femoral flow rate | no vertebral dilating action | bradycardia | 60% | no effect on the AP | no vasodilating effect | the pulse rate decreases | exclusively peripheral and very moderate vasodilating effect |  |  |  |  | 
2 | CCC(=O)OCCN1CCN(CC2COc3ccccc3O2)CC1 (centres unmarked) [Example 6, 1-[2-(1,4-Benzodioxanyl)-methyl]-4-[2-(propionyloxy)-ethyl]-piperazine dihydrochloride] |  |  |  |  |  |  |  |  |  | increased in the tests wherein an increase in the pulse rate is observed | decreased | decreased | 15 min | A hypotensive effect proportional to the dose
